This is one part of the list.
T1: UNK ZnF1-3 (human, UniProt Q9C0B0 31-174)
T1 sequence: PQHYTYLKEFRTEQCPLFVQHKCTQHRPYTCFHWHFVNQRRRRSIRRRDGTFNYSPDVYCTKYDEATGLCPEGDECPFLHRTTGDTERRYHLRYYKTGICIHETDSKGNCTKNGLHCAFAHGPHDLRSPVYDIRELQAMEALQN

B1: chr13:100200574:100200575:-_ENSMUSG00000052727_ENSMUST00000064762|mus_hu|FALSE|FALSE (ssRNA)
RNA: GGGAGUUCUACAGUCCGACGAUCAUAAUCUUCUUCAUCUGGGGACCUGGUUGUUUCCUCAGGCUUUUGAUAGGCAUAGCUAAAGUCACCAGGUGUCUUCCCUCCACUGUCCUUCUCCAGGCCAGGUGUGGACAAAUCUCUAUUCAACAGAGGAUUGAGCAUCA
B2: 37431128_37434536_1627_3pUTR_ENSMUSG00000026113_ENSMUST00000027287|mouse|control|control (ssRNA)
RNA: GGGAGUUCUACAGUCCGACGAUCCGUUCCGCGUAGUAGCUGACCUGGGUUUUUAGGGUGUUGAUCUGGGCAAUGAUCUCCUUGGCUCGGGUGAUGUCCUGUGGUAUGUAGAUGAUGGACUGGCCACUAGAAGAUGUACAACACCAACAGAGGAUUGAGCAUCA
B3: 138256096_138289186_685_CDS_ENSG00000114107_ENST00000484888|human|control|control (ssRNA)
RNA: GGGAGUUCUACAGUCCGACGAUCUUCCUCCUUUUUUAAUCUACAGACUUCCAUUUGCAAAGAAGCAAUAGUUUCUUCUUGCUCCGUUCGUUUUUUCUUAUAAUGCUGGCACUUCACCUGUAAAGUUUUCUGCUCCUUUUGAAGCAACAGAGGAUUGAGCAUCA
B4: 77617946_77618066_2131_CDS_ENSG00000091656_ENST00000521891|human|control|control (ssRNA)
RNA: GGGAGUUCUACAGUCCGACGAUCGUCUCCCCGGGCUAUUUCACUUGGAUGAGCAGCUGUGGCACUGUCUUUACUGGCACUUGCGUCUGCAAAGUCCUUGCCACUGAUGCCAUAGUUACUAGCAACACUGCCACUGGCCCUAACCAACAGAGGAUUGAGCAUCA
B5: chr4:115894766:115894767:+_ENSMUSG00000028698_ENSMUST00000030464|mus_hu|mus_mus_mus_hu_True|48_48 (ssRNA)
RNA: GGGAGUUCUACAGUCCGACGAUCUUCCACACGGAAAUGUACUUCGGGUUUUCCAACGGCCAGUACCAGUCCGGCCAAACUACCCGAUGAGGACAAGCCCCCUCUCUCCUACAGAACACAACAAAAUGCCCCCGAACUUUCAAGCAACAGAGGAUUGAGCAUCA
B6: chr1:58468927:58468928:-_ENSMUSG00000026034_ENSMUST00000148330|mus_mus|mus_mus_mus_hu_False|88_108 (ssRNA)
RNA: GGGAGUUCUACAGUCCGACGAUCAAUCUAUAAUUACGAUGUUCAUUUAUUUGGUUUUGUACUUAAUGAACCAAAUUACCCAAACAAAAUAAACAUGGCAAUAUAAAAAUGUUAAGAAUUUACAAAGCUGUACAAAAUAACUUACAACAGAGGAUUGAGCAUCA
B7: chrX:70926549:70926550:+_ENSMUSG00000019558_ENSMUST00000114465|mus_hu|FALSE|FALSE (ssRNA)
RNA: GGGAGUUCUACAGUCCGACGAUCGGCAGACCCCAAAAGUGUCAGGGAAAGGCAGGCCCCCUGGAGGGGUGCGGUGGGGCUGAAGCAGGGGCUGCUAUGGCUACCAGAGGUGAGCUGGUGAUGUGAGCUGAGUUGUCACAUGACCAACAGAGGAUUGAGCAUCA
B8: chr12:105536279:105536280:+_ENSG00000136051_ENST00000332180|hu_mus|hu_hu_hu_mus_True|48_48 (ssRNA)
RNA: GGGAGUUCUACAGUCCGACGAUCAGCACUGAACAUGUAAUGUAAUCUGGCUGCAUCGACAGCAUUUUCAUAUACAUCAUCUAAAUAAAUUGGGAAGACAGCGCGAUGCCAGUAUAAAAAACAGCAGUCACACUGUGCUUGGACCAACAGAGGAUUGAGCAUCA
B9: chr15:79189586:79189587:+_ENSG00000185787_ENST00000426013|hu_mus|FALSE|FALSE (ssRNA)
RNA: GGGAGUUCUACAGUCCGACGAUCGUCCGUCACUGAUACACUGGUAGAAACUUUGAAAUGAAAAAAGGAAGAAAAAAGGAGCAGUUACUCCUUUUAUUUUCUCUGUUUAAAAUCAAAGAGGAAACAAACAACUCUGUUAUACACCAACAGAGGAUUGAGCAUCA
B10: chr3:179052105:179052106:+_ENSG00000121864_ENST00000484866|hu_hu|FALSE|FALSE (ssRNA)
RNA: GGGAGUUCUACAGUCCGACGAUCUCCAAACCUCAUCAAGCAGUCACUACAUUUAUGAGGCAAGUCAGCUGAAUGCUUGAAAUCUAGAUGAAUUUUAAGAUCUUCAAUUUGUCCUGUUGAAUAUUCACAAUAUUGACAUAAAUACAACAGAGGAUUGAGCAUCA
B11: 62013551_62021495_69_CDS_ENSMUSG00000066151_ENSMUST00000084527|mouse|control|control (ssRNA)
RNA: GGGAGUUCUACAGUCCGACGAUCCAGUCCAAAAAGAGAAGCCAGCUUAGCUCCGCCGCUUGGCGAGAGGAAGUCGGUGUCAUCCUCGUCUCCGGCACCGAACAUCACGUCGGCUUUCGCCCAGCUGAAGGGAGGAGGAAGUUGCAACAGAGGAUUGAGCAUCA
B12: chr12:493273:493274:-_ENSG00000073614_ENST00000399788|hu_mus|hu_hu_hu_mus_False|38_48 (ssRNA)
RNA: GGGAGUUCUACAGUCCGACGAUCUUUUCUCUCCACCACAGGGAUCUUCAAUGUAGAUCCUUGAAGUUCCCAAAAUUUUGCCAGUUGAUCCAAGAAAUCCAAUCUCACUCUAGUCAUUGCCUCAAGUUCAUUCAGGCGCUGGACCAACAGAGGAUUGAGCAUCA
B13: 45143715_45143835_1109_CDS_ENSG00000136270_ENST00000258770|human|control|control (ssRNA)
RNA: GGGAGUUCUACAGUCCGACGAUCCAGGGGCAGGCUGAGCCACUUGAGUAAGGCGAAGGACUUGGCACAGUGGGCCACCUCACCAGAAGUCAGGCUGGGCAUGAGGGAUAGCAGGUCGGUGGCCAGGCGCUGGGACACCUGGGUCAACAGAGGAUUGAGCAUCA
B14: chr1:220276048:220276049:+_ENSG00000067704_ENST00000302637|hu_hu|hu_hu_hu_mus_True|1_1 (ssRNA)
RNA: GGGAGUUCUACAGUCCGACGAUCGCAAAUUGCCUGGUUGGCGGGAAUUGUCCAAGGCUGGGUGGUCCAAACUAAAACGCUAACAGGGGAUGAGGCAUCUGUAAGAGACUCCAACUUCGGAGGAGGUCUCAGGAGGGGAAAUUUCAACAGAGGAUUGAGCAUCA

biological target: T1, UNK ZnF1-3; test: nsRBNS (natural sequence RNA bind-n-seq); RBNS binding buffer (assumed for nsRBNS): 25 mM Tris pH 7.5, 150 mM KCl, 3 mM MgCl2, 0.01% Triton X-100, 500 ug/ml BSA, 20 U/ml SUPERase-In, 4 C; UNK is unkempt and MSI1 is Musashi-1; names of the RNAs are library labels; protein concentration not given here; high values mean tight binding

Binder | binding signal [enrichment R]
B1 | 0.517
B2 | 0.828
B3 | 0.549
B4 | 0.997
B5 | 1.02
B6 | 0.567
B7 | 1.28
B8 | 2.13
B9 | 1.01
B10 | 1
B11 | 0.618
B12 | 1.07
B13 | 1.38
B14 | 2.09
